Test results from the RNAGym collection of RNA variant scans (doi:10.1073/pnas.2313332121).
This sample is rich in variants without activity.

B1: TPR 5TU (parent)
chain: GGAUCUUCUCGAUCUAACAAAAAAGACAAAUCUGCCACAAAGCUUGAGAGCAUCUUCGGAUGCAGAGGCGGCAGCCUUCGGUGGCGCGAUAGCGCCAACGUUCUCAACUAUGACACGCAAAACGCGUGCUCCGUUGAAUGGAGUUUAUCAUG

Variants of: B1
Test: polymerase ribozyme fitness, log enrichment relative to wild type (log ratio); higher = more active; in vitro selection for triplet polymerase activity
Procedure, shortened: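 Each subunit of a heterodimeric triplet polymerase ribozyme was represented by a PCR-built, transcribed mutant library that underwent triplicate single-round in vitro selection with frozen incubation at −7 °C. Extended constructs were recovered by gel excision, streptavidin-bead capture and RT-PCR, and Illumina sequencing of input and output libraries kept genotypes with ≥10 input reads and ≥1 read per output. Fitness is the logarithm of genotype enrichment relative to wild-type enrichment, from inverse-variance-weighted replicate averages, with a logarithm base of 2.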
In the case of A21U U56A C96U, the “polymerase ribozyme fitness (log ratio)” value is reported as -0.871. For A21U G50C G70U C93A, the “polymerase ribozyme fitness (log ratio)” value was ≤ -4.2. In the case of A22C A52G G71A C79G C87G C99G C114G U127G C129A A142C, the “polymerase ribozyme fitness (log ratio)” value is reported as ≤ -4.2. In the case of A21U U77A U82G C96G U104G C105A C118U U139C, the “polymerase ribozyme fitness (log ratio)” value is reported as ≤ -4.2. In the case of A22C C76G G92C C105G U145C, the “polymerase ribozyme fitness (log ratio)” value is reported as ≤ -4.2. With A22C A28U U33G C35A U56A G65C the “polymerase ribozyme fitness (log ratio)” value was ≤ -4.2. For A21U G141C, the “polymerase ribozyme fitness (log ratio)” value was 0.187. In the case of A22C C27G C99U A106U G140U A147G, the “polymerase ribozyme fitness (log ratio)” value is reported as ≤ -4.2. With A22C A24C A41C A52C C85G G88U A89U the “polymerase ribozyme fitness (log ratio)” value was ≤ -4.2. In the case of A21U C72U U77G U82G G100C U135G, the “polymerase ribozyme fitness (log ratio)” value is reported as ≤ -4.2. For A21U G46C A47U A52G U55A G58C C95U U134G C149U, the “polymerase ribozyme fitness (log ratio)” value was ≤ -4.2. For A22C A23G C93G C149U, the “polymerase ribozyme fitness (log ratio)” value was ≤ -4.2. In the case of A21U G92A C116G C123G, the “polymerase ribozyme fitness (log ratio)” value is reported as ≤ -4.2. In the case of A22C A66C C87G C99A A121G U127C, the “polymerase ribozyme fitness (log ratio)” value is reported as ≤ -4.2. In the case of A21U G42C G71A G81C C93U A106U C108U U144G, the “polymerase ribozyme fitness (log ratio)” value is reported as ≤ -4.2. With A21U U33G C72A C95U A122U the “polymerase ribozyme fitness (log ratio)” value was ≤ -4.2. For A22C A29U A41G G50C U77A C85U C93G G141C, the “polymerase ribozyme fitness (log ratio)” value was ≤ -4.2. In the case of A21U C75G G86A U101C, the “polymerase ribozyme fitness (log ratio)” value is reported as -4.03. With A21U G65C G68U C85G G92A G117A A138U the “polymerase ribozyme fitness (log ratio)” value was ≤ -4.2. With A21U G86U C93U G117U A137C the “polymerase ribozyme fitness (log ratio)” value was ≤ -4.2. With A21U U55G G70A C93A the “polymerase ribozyme fitness (log ratio)” value was ≤ -4.2. For A22C A28G C43A A52C G80C U82A A98G C114U U135G G136A G141C U148G, the “polymerase ribozyme fitness (log ratio)” value was ≤ -4.2. In the case of A22C A26C A49C U56A G59U G68U C85U G86U G94U A97G U134A, the “polymerase ribozyme fitness (log ratio)” value is reported as ≤ -4.2. For A22C A47U A52C A73U C87U U102G U104G, the “polymerase ribozyme fitness (log ratio)” value was ≤ -4.2. With A21U U31G C87A U102A G141A the “polymerase ribozyme fitness (log ratio)” value was ≤ -4.2. For A22C C75G G88U A91G A110G C116A G136A, the “polymerase ribozyme fitness (log ratio)” value was ≤ -4.2. With A21U C32U G59C A91G C93A A107U the “polymerase ribozyme fitness (log ratio)” value was ≤ -4.2. With A21U U31C G74U C87G G92A C105A C116A C118U U135G G141A the “polymerase ribozyme fitness (log ratio)” value was ≤ -4.2. With A21U C57U C93U C96A C116U the “polymerase ribozyme fitness (log ratio)” value was -1.6. With A22C C43A G46U C99A G140C the “polymerase ribozyme fitness (log ratio)” value was ≤ -4.2. For A21U C57A G84A C85A C87A G94C C103A G152A, the “polymerase ribozyme fitness (log ratio)” value was ≤ -4.2. With A21U G42C G59C U61G G62C G67C C114A the “polymerase ribozyme fitness (log ratio)” value was ≤ -4.2. With A22C C27U G46A A107U G140C the “polymerase ribozyme fitness (log ratio)” value was ≤ -4.2. With A21U C85U C96U C114G G140A the “polymerase ribozyme fitness (log ratio)” value was ≤ -4.2. In the case of A21U U78G, the “polymerase ribozyme fitness (log ratio)” value is reported as ≤ -4.2. With A22C C76A G128U C129U the “polymerase ribozyme fitness (log ratio)” value was ≤ -4.2. With A22C A41C G50A A115G the “polymerase ribozyme fitness (log ratio)” value was -3.63. For A21U U56A C75A G94C G100A U127C U146A, the “polymerase ribozyme fitness (log ratio)” value was ≤ -4.2. With A21U C32G C85A the “polymerase ribozyme fitness (log ratio)” value was ≤ -4.2. For A21U C35U G58A G68A A115G C118U, the “polymerase ribozyme fitness (log ratio)” value was ≤ -4.2. In the case of A21U U33G G46A C79U G83A A107C G117A A142G, the “polymerase ribozyme fitness (log ratio)” value is reported as ≤ -4.2. With A21U C75A C76G A107U the “polymerase ribozyme fitness (log ratio)” value was ≤ -4.2. With A22C C38A U44G C75A G84A G117A U135A U151G the “polymerase ribozyme fitness (log ratio)” value was ≤ -4.2. In the case of A22C A49C G80C, the “polymerase ribozyme fitness (log ratio)” value is reported as ≤ -4.2. With A21U G58C A73G C85G the “polymerase ribozyme fitness (log ratio)” value was -1.7. With A21U C32U G86C C132A C149A the “polymerase ribozyme fitness (log ratio)” value was ≤ -4.2. For A22C A28U G58C A91C, the “polymerase ribozyme fitness (log ratio)” value was ≤ -4.2. In the case of A21U U56A G140A G141A, the “polymerase ribozyme fitness (log ratio)” value is reported as -4.17. In the case of A21U C43U C99G A120G G126U, the “polymerase ribozyme fitness (log ratio)” value is reported as ≤ -4.2. For A21U G42C U44A U53A U55A C87U, the “polymerase ribozyme fitness (log ratio)” value was ≤ -4.2. In the case of A22C A39U A40C A47G U56A C96U C125A, the “polymerase ribozyme fitness (log ratio)” value is reported as ≤ -4.2. For A21U G34A C93U C99G C149G, the “polymerase ribozyme fitness (log ratio)” value was ≤ -4.2. With A22C A28U A52U G83C A91G A97C the “polymerase ribozyme fitness (log ratio)” value was ≤ -4.2. In the case of A21U G68U G86A G94U C108G G133A A138U, the “polymerase ribozyme fitness (log ratio)” value is reported as ≤ -4.2. For A21U G84A G141A, the “polymerase ribozyme fitness (log ratio)” value was 0.99. With A22C A60G C87U the “polymerase ribozyme fitness (log ratio)” value was 0.179. In the case of A21U G25U U31A C85A A97U A110G, the “polymerase ribozyme fitness (log ratio)” value is reported as ≤ -4.2. With A21U C57A G71A U90G C93G G136A U148C the “polymerase ribozyme fitness (log ratio)” value was ≤ -4.2. For A21U C38U A52C C93U A106G U135G, the “polymerase ribozyme fitness (log ratio)” value was ≤ -4.2. With A21U G50A C75U G81A G136U the “polymerase ribozyme fitness (log ratio)” value was ≤ -4.2. In the case of A21U C57G U77A A119U, the “polymerase ribozyme fitness (log ratio)” value is reported as ≤ -4.2. In the case of A21U U44A C51U C57U G65A, the “polymerase ribozyme fitness (log ratio)” value is reported as ≤ -4.2. In the case of A21U U82C, the “polymerase ribozyme fitness (log ratio)” value is reported as 0.17. With A21U C35U G58U C87G C105G C131A the “polymerase ribozyme fitness (log ratio)” value was ≤ -4.2. With A21U G34A G141A C149G the “polymerase ribozyme fitness (log ratio)” value was ≤ -4.2. In the case of A21U C38A C57U U102G A119U, the “polymerase ribozyme fitness (log ratio)” value is reported as ≤ -4.2. For A22C C69G G81C, the “polymerase ribozyme fitness (log ratio)” value was -1.85. With A21U U31G A52C G86A A106G G140C the “polymerase ribozyme fitness (log ratio)” value was ≤ -4.2. In the case of A21U U53A C57U G83A C95U, the “polymerase ribozyme fitness (log ratio)” value is reported as -4.06. For A22C C51G U55G C85U G86C C96U C149U A150G, the “polymerase ribozyme fitness (log ratio)” value was ≤ -4.2. For A21U C54A G68C C85U C103U A106U G133U, the “polymerase ribozyme fitness (log ratio)” value was ≤ -4.2. For A22C A24G A52G G68U, the “polymerase ribozyme fitness (log ratio)” value was ≤ -4.2. In the case of A21U C85U G124A G126A G136A, the “polymerase ribozyme fitness (log ratio)” value is reported as -3.04. With A22C C27G A66U U145C the “polymerase ribozyme fitness (log ratio)” value was ≤ -4.2. With A21U G65A G70A G86A A119C U127A U148G A150U the “polymerase ribozyme fitness (log ratio)” value was ≤ -4.2. For A21U G50C C54U C63U G94A, the “polymerase ribozyme fitness (log ratio)” value was -0.0103. For A22C C35A A52U C57U G67U A91U A97C C118G, the “polymerase ribozyme fitness (log ratio)” value was ≤ -4.2. With A22C C51U G84U the “polymerase ribozyme fitness (log ratio)” value was -2.78. For A21U C36A G50U U55A C57G G62A G68U C85G C103A G128A, the “polymerase ribozyme fitness (log ratio)” value was ≤ -4.2. In the case of A21U C27U C43U G50U A52C C103A C123A U145C, the “polymerase ribozyme fitness (log ratio)” value is reported as ≤ -4.2. For A21U U77G G88C A120G G128A, the “polymerase ribozyme fitness (log ratio)” value was ≤ -4.2. In the case of A22C C35G U44A A60G C76A C95U G128A A150C U151G, the “polymerase ribozyme fitness (log ratio)” value is reported as ≤ -4.2. For A22C A52C U53A G71U C93G A115C, the “polymerase ribozyme fitness (log ratio)” value was ≤ -4.2. With A21U G50C C95U A115U the “polymerase ribozyme fitness (log ratio)” value was ≤ -4.2.
